# The whole screen tested about 390,000 compounds, of which about 4,000 (1%) were called active. The inconclusive results got no clear call from the source; some entries with a clear call stand among them for comparison. Calls come from the whole dose curve; as a rule, active = well fitted inhibition curve with a large enough effect; inconclusive = small, poorly fitted or top-dose-only effect; inactive = no such curve, though single readings can be large or run the other way. Potencies beside an inconclusive call are fits to weak or partial responses and may not hold up.
# Molecular target: Thioredoxin reductase 1, cytoplasmic (Rattus norvegicus) (UniProt O89049)
# Experiment: qHTS Assay for Inhibitors of Mammalian Selenoprotein Thioredoxin Reductase 1 (TrxR1): qHTS; note: nearly all actives have a fitted effect of over 65% in size
# Conditions: recombinant rTrxR1, NADPH fluorescence consumption, selenite substrate; series mostly up to 114 µM; activity change, negative = inhibition: at the top concentration
# How it was run: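 Rat TrxR1 (90 nM in the dispensed reagent) was pre-reduced with 400 uM NADPH for 5 min at room temperature, then incubated with compound for 15 min. After 400 uM selenite was added, NADPH fluorescence (Ex 340/Em 450 nm) was followed for 8 min.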
# % is set by controls: 0 for no effect and ±100 for the full control effect; potency is the fitted concentration of half-maximal effect; tags give direction and shape of the fitted curve.
# UniProt O89049, sequence (O89049 whole entry, looked up): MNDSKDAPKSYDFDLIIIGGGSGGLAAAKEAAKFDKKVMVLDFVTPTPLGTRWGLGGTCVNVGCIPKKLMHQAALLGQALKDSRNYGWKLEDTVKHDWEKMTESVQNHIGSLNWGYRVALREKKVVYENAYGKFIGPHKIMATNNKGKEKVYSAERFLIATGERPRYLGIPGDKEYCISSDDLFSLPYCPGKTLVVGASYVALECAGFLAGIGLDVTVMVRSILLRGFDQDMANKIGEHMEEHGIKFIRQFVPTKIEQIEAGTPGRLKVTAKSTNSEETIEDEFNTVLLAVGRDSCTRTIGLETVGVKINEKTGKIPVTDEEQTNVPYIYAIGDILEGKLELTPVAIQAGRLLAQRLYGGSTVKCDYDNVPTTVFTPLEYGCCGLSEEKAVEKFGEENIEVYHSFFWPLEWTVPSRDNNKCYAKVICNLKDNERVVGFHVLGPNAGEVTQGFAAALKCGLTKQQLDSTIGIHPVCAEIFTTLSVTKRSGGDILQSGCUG
Structure (SMILES),Potency,"activity change, negative = inhibition"
COC(=O)C(Nc1nccs1)(OC)C(F)(F)F (stereo not drawn),"inconclusive: 79.4 µM [inhibitor, partial curve, poor fit]",
CCCNC(=O)c1c(N)n(-c2ccc3c(c2)OCO3)c2nc3ccccc3nc12,,inactive: 18.8%
COc1cc(/C=N/N=C/c2cc(OC)c(O)c(OC)c2)cc(OC)c1O,"inconclusive: 17.8 µM [inhibitor, single point]",
Oc1c(CN2CCCCC2)cc(Br)c2cccnc12,"inconclusive: 89.1 µM [inhibitor, single point]",
COc1ccccc1CNC(=S)NC1CCCCC1,,inactive: 0.26% [at 57.1 µM]
Cc1ccc(OCCC(=O)Nc2ccc(F)c(F)c2)cc1,"inconclusive: 89.1 µM [inhibitor, single point]",
COC(=O)c1ccc(NC(=O)c2nc(SCc3ccccc3F)ncc2Cl)cc1,,inactive: 7.89% [at 0.0914 µM]
CCc1ccc(/C=C2\SC(=S)N(CCC(=O)N3CCN(C)CC3)C2=O)cc1,"inconclusive: 39.8 µM [inhibitor, single point]",
Cc1cccc(N/C=C(\[N+](=O)[O-])S(=O)(=O)c2ccccc2)c1,,inactive: 16.3% [at 57.1 µM]
CCC(C)(C)n1nnnc1C(c1ccc(O)cc1)N1CCc2ccccc2C1 (stereo not drawn),active: 15.8 µM,
CC[C@]12C(=O)N(C)C[C@H]([C@@H]3C(=O)N(Cc4ccccc4)C(=O)[C@@H]31)N2C(=O)c1ccc(Br)cc1,"inconclusive: 5.62 µM [inhibitor, full curve, poor fit]",
COc1ccc(C)cc1NC(=O)CSc1ccc(-c2ccco2)nn1,active: 15.8 µM,
O=C(COc1ccccc1)NCCSCc1ccco1,"inconclusive: 50.1 µM [inhibitor, partial curve]",
O=C(NCc1ccco1)c1ccc2c(c1)C(=O)c1ccccc1-2,active: 20 µM,
CCc1sc(C(=O)Nc2nccs2)cc1C,,inactive: 28.2% [at 57.1 µM]
COC(=O)C[C@H]1c2ccccc2S(=O)(=O)N1c1ccc(N(C)C)cc1,,inactive: -14%
Cc1nc(-n2nc(C)c(Cc3ccccc3Cl)c2C)sc1C(=O)Nc1ccccc1F,,inactive: 22.3%
CCOC(=O)N1CCC(N2CCN(S(=O)(=O)CC)CC2)CC1,"inconclusive: 3.55 µM [inhibitor, single point]",
CCn1c(N2CCN(C(=O)/C=C/c3ccccc3)CC2)nc2ccccc21,"inconclusive: 79.4 µM [inhibitor, partial curve, poor fit]",
O=C(Nc1cccnc1)c1ccc(-c2ccccc2)cc1,,inactive: 27%
O=C(COC(=O)c1ccc([N+](=O)[O-])o1)Nc1ccc(N2CCOCC2)cc1,"inconclusive: 39.8 µM [inhibitor, partial curve]",
COc1ccccc1NC(=O)C(=O)NCC(c1ccc2c(c1)OCO2)N1CCOCC1 (stereo not drawn),,inactive: 15.4% [at 57.1 µM]
COc1ccc(S(=O)(=O)NCc2ccccn2)cc1NC(=O)c1ccc(Cl)cc1,,inactive: 18.1% [at 57.1 µM]
COc1ccccc1Nc1nc(N)nc(CN2CCCCCC2)n1,active: 14.1 µM,
CCOC(=O)c1cc(-c2ccccc2)sc1NC(=O)C(C)C,,inactive: 5.6%

Structure (SMILES),Potency,"activity change, negative = inhibition"
COC(=O)CCC(=O)OC1(C)C(=O)C=C2C=C3CCCN3C=C2C1=O (stereo not drawn),"inconclusive: 70.8 µM [inhibitor, partial curve]",
CCOC(=O)c1cc2c(C)n(-c3ccc(OCC)cc3)c(C)c2cc(C(=O)OCC)c1=O,"inconclusive: 56.2 µM [inhibitor, partial curve, poor fit]",
O=C(Cn1cc(S(=O)(=O)Cc2cccc(Cl)c2)c2ccccc21)NCCc1ccccc1,,inactive: 8.65%
COc1ccc(C2(CNC(=O)/C=C\c3ccco3)CCCC2)cc1OC,active: 10 µM,
Cc1cc(NC(=O)/C=C/C(=O)N(CC(=O)NC2CCCC2)c2ccc(F)cc2)no1,"inconclusive: 79.4 µM [inhibitor, single point]",
COc1ccccc1N1CCN(C(=O)c2ccc(CN3CCc4ccccc4C3)cc2)CC1,"inconclusive: 79.4 µM [inhibitor, single point]",
COc1ccc(-n2c(O)c(/C=N/NS(=O)(=O)c3ccc(C)c([N+](=O)[O-])c3)c3ccccc3c2=O)cc1OC,"inconclusive: 79.4 µM [inhibitor, single point]",
COc1ccc(CC(=O)Nc2c3c(nn2C(C)(C)C)CS(=O)(=O)C3)cc1OC,"inconclusive: 50.1 µM [inhibitor, partial curve]",
C/C(=C\c1ccccc1)C(=O)n1nnc2ccccc21,"inconclusive: 2.24 µM [inhibitor, full curve]",
O=C(Nc1c(Cl)ccc2nsnc12)c1ccc([N+](=O)[O-])o1,"inconclusive: 22.4 µM [inhibitor, full curve]",
CSCCC(NC(=O)c1ccc(Cl)cc1Cl)C(=O)OC(C)C(=O)NCc1ccco1 (stereo not drawn),"inconclusive: 56.2 µM [inhibitor, single point]",
O=C(Cn1c(=O)nc(-c2ccccc2F)c2cc(Cl)ccc21)N1CCN(c2ccccc2F)CC1,,inactive: 7.18% [at 57.1 µM]
CN(C)c1ccc(/C=C(\NC(=O)c2ccccc2)C(=O)NCCN2CCOCC2)cc1,"inconclusive: 89.1 µM [inhibitor, single point]",
N=C1/C(=C\c2ccc(-c3cc(Cl)cc(Cl)c3)o2)C(=O)N=C2SC=C(c3ccccc3)N12,,inactive: -13.6%
OCc1c[nH]c2ccccc12,"inconclusive: 50.1 µM [inhibitor, partial curve]",
CCOc1ccc(OCc2ccc(C(=O)O)o2)cc1,,inactive: 7.8% [at 57.1 µM]
CSc1cccc(Nc2nc3c(S(=O)(=O)c4ccccc4)nnn3c3ccc(Cl)cc23)c1,,inactive: -4.65%
CC1(C)CC(=O)C(C(c2cccc([N+](=O)[O-])c2)C2C(=O)CC(C)(C)CC2=O)C(=O)C1,"inconclusive: 20 µM [inhibitor, full curve, poor fit]",
Cc1nc(SCc2nc3ccc(Cl)cc3[nH]2)c2oc3ccccc3c2n1,,inactive: 27.1% [at 57.1 µM]
O=c1ccc2[n+]([O-])c3ccc(O)cc3oc-2c1,"inconclusive: 50.1 µM [inhibitor, partial curve, poor fit]",
CC1(C)CC(=O)C2=C(C1)N(c1ccccc1C#N)C(N)=C(C#N)C2c1cccs1 (stereo not drawn),"inconclusive: 31.6 µM [inhibitor, partial curve, poor fit]",
COC(=O)C1=C(C)NC(=S)NC1c1ccc(-c2cccc(Cl)c2)o1 (stereo not drawn),,inactive: 5.74% [at 57.1 µM]
CCCC(O)(CCN(C)C)c1ccc(OC)cc1 (stereo not drawn),"inconclusive: 20 µM [inhibitor, single point]",
Cc1ccc(S(=O)(=O)NNC(=S)NCCc2ccccc2)cc1,"inconclusive: 7.08 µM [inhibitor, full curve]",
c1ccc(-c2ccc(-n3ccnc3)cc2)cc1,,inactive: 16.2%

Structure (SMILES),Potency,"activity change, negative = inhibition"
CCOC(=O)c1c(C)[nH]c(CCC(=O)Nc2cc(C)ccc2OC)c1C,,inactive: 8.68% [at 57.1 µM]
Cc1ccccc1NC(=O)c1nn(C)c(C(=O)Nc2ccccc2C)c1[N+](=O)[O-],,inactive: 7.13%
Cc1ccc(C(=O)NCc2ccc(N(C)C)cc2)cc1NC(=O)c1nsc2ccccc12,,inactive: 18.4% [at 57.1 µM]
CC(/C=N/NC(=O)c1nnn(-c2nonc2N)c1CN(C)C)=C\c1ccco1,"inconclusive: 25.1 µM [inhibitor, full curve]",
O=C(NNc1nc2ccccc2s1)c1ccccc1F,,inactive: 14.3%
NC(=O)c1ccc(N=C2C(=O)Nc3ccc([N+](=O)[O-])cc32)cc1,"inconclusive: 12.6 µM [inhibitor, partial curve]",
Cc1cccc(NC(=O)c2ccc(N(Cc3ccccc3)S(C)(=O)=O)cc2)c1,,inactive: -6.19%
C/C(=N\Nc1ccc(C(=O)O)cc1)c1ccc2c(c1)Nc1ccccc1S2,,inactive: -9.05%
O=c1ccc(NS(=O)(=O)c2ccc(Cl)cc2)cn1Cc1ccc(Cl)c(Cl)c1,"inconclusive: 35.5 µM [inhibitor, partial curve, poor fit]",
CCCCOc1ccc(C(=O)N2CCN(CCc3ccncc3)CC2)cc1,"inconclusive: 31.6 µM [inhibitor, partial curve]",
O=C(Nc1cccc(OCC(=O)N2CCOCC2)c1)c1cccc(Cl)c1,"inconclusive: 70.8 µM [inhibitor, single point]",
CCOc1cc(/C=C2\CCCC(C(=O)C(F)(F)F)=C2O)ccc1O,"inconclusive: 89.1 µM [inhibitor, single point]",
O=C(/C=C/c1ccc(O)cc1)c1ccc(O)cc1O,"inconclusive: 39.8 µM [inhibitor, partial curve, poor fit]",
COc1ccc(OC)c(/C=N/c2oc(-c3ccco3)c(-c3ccco3)c2C#N)c1,"inconclusive: 15.8 µM [inhibitor, partial curve]",
O=C(O)c1ccc(NC(=S)Nc2ccccc2)cc1,,inactive: -13%
Cc1ccc(-c2ccccc2NC(=O)C2C3C=CC(C3)C2C(=O)O)o1 (stereo not drawn),"inconclusive: 70.8 µM [inhibitor, single point]",
COc1ccc(C2C(C#N)=C(N)N(N(C)C)C3=C2C(=O)CC(C)(C)C3)cc1 (stereo not drawn),,inactive: 4.9%
CN1/C(=C\C=N\O)C(C)(C)c2ccccc21,,inactive: 24.7%
O=C(c1ccco1)N1CCN(Cc2nc3ccc([N+](=O)[O-])cc3c(=O)n2-c2ccccc2F)CC1,"inconclusive: 50.1 µM [inhibitor, partial curve, poor fit]",
CCOC(=O)c1cnc2ccc(C)cc2c1Sc1ccc(F)cc1,"inconclusive: 15.8 µM [inhibitor, partial curve]",
Cc1[nH]c(=O)[nH]c(=O)c1S(=O)(=O)N1CCC(C(=O)N2CCN(c3cccc(C(F)(F)F)c3)CC2)CC1,,inactive: 7.02%
O=C(CSCc1ccco1)c1cccs1,"inconclusive: 50.1 µM [inhibitor, partial curve, poor fit]",
COC(=O)[C@H](C)N1C/C=C\COc2c(Cl)cc(Cl)cc2S1(=O)=O,"inconclusive: 56.2 µM [inhibitor, partial curve, poor fit]",

# — PubChem BioAssay AID588453 (National Center for Advancing Translational Sciences (NCATS), 2011)
